Molecules are shown by their SMILES. “And” between values parts separate entries of the source, which are not always exact repeats. Equal values may be shown once. The whole screen tested about 110,000 compounds, of which about 230 (0.21%) showed an effect of 50% or more. The list shows a part of the results.
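Note: 30 min substrate incubation versus DMSO and 10 µM JCP410 controls.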

The target in this experiment is DPAP1 (Plasmodium falciparum, UniProt Q8IIJ9). Nature of the experiment: primary screen, percent inhibition; read by cleavage of a fluorogenic dipeptide substrate; higher = more effect of the substance. Further details: species or system P. falciparum D10 trophozoite lysates; single well.
Chain of DPAP1 (Q8IIJ9 whole entry, looked up): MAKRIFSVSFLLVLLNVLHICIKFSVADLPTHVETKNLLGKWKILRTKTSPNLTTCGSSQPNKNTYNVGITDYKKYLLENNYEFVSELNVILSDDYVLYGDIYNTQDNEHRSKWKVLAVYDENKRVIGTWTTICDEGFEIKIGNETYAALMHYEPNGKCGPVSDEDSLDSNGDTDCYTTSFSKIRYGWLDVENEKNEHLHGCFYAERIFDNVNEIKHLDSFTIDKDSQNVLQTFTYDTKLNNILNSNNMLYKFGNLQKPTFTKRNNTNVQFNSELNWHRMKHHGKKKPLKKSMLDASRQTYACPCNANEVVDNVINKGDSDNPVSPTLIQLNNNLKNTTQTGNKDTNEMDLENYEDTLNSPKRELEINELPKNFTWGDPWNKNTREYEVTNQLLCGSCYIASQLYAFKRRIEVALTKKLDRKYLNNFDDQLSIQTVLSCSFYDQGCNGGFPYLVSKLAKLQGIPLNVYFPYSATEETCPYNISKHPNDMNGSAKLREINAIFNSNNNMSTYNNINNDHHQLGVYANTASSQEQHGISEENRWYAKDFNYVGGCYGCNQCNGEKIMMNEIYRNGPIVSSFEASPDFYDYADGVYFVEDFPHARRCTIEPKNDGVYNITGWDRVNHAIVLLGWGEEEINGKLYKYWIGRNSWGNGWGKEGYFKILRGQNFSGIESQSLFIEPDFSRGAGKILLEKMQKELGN
Take `Cc1cc(C(F)(F)F)nn1CC(=O)Nc1ccc(S(N)(=O)=O)cc1`: the “% Inhibition @ 10 uM” value was -4.66%.
Regarding `O=C(O)CCc1nnc2n(CCc3ccccc3)c(=O)c3ccccc3n12`, the “% Inhibition @ 10 uM” value is recorded as -2.42%.
With `CC(C)N(Cc1ccccc1)C(=O)Cc1ccccc1` the figure was 2.65%; with `COC(=O)C1=CN(C(C)C)C=C(C(=O)OC)C1c1cc(OC)c(OC)c(OC)c1`, -3.23%; with `O=C1OC(OC(=O)c2ccccc2Br)C(N2CCOCC2)=C1Cl` (stereo not drawn), 1.96%.
With `O=C(O)C1C2C=CC(C2)C1C(=O)NCc1ccccn1` (stereo not drawn) the figure was 4.28%; with `O=C(Nc1cccc(F)c1)c1cc(F)c(F)cc1Cl`, 0.968%.
As for `COc1ccc(OC)c(C2C(C#N)=C(C)N=C3CC(c4ccc(Cl)cc4)CC(O)=C32)c1` (stereo not drawn), the figure is -1.2%.
As for `COc1ccc(Cl)cc1NC(=O)c1ccc(F)cc1`, the “% Inhibition @ 10 uM” value was -13.3%.
As for `Cc1cc(C)nc(SCC(=O)Nc2nc3c(s2)CC(C)CC3)n1` (stereo not drawn), the figure is -3.49%; as for `COc1cccc(CN2C[C@@H]3C[C@H](C2)c2cccc(=O)n2C3)c1OC`, -7.15%.
With `Fc1cccc(CN2CCCCC2c2cccnc2)c1` (stereo not drawn) the figure was -0.582%; with `CCOc1ccccc1C1NC(=O)NC(c2ccccc2)=C1C(=O)c1ccccc1` (stereo not drawn), -5.07%.
With `O=C(CSc1cn(Cc2ccc(F)cc2)c2ccccc12)Nc1nccs1` the figure was 3.37%; with `CC(=O)c1cccc(NC(=O)c2sc(Cl)nc2C)c1`, -0.116%; with `CCCOc1cccc(C(=O)Nc2ccc(Br)cc2F)c1`, 3.06%.
In the case of `CCSC1=C(C#N)C(c2ccc(OC)c(OC)c2)C2=C(O)CC(C)(C)CC2=N1` (stereo not drawn), the “% Inhibition @ 10 uM” value is given as 2.01%.
In the case of `Nc1c(C(=O)NCc2ccccc2)sc2nc(-c3ccc(F)cc3)ccc12`, the “% Inhibition @ 10 uM” value is given as 1.86%.
With `CCc1cc2c(cc1C(C)NC(C)=O)OCCO2` (stereo not drawn) the figure was 1.83%; with `N#Cc1c(N/C=C/C(=O)c2ccccc2)sc2c1CCCC2`, -1.21%.
As for `COc1cc(C(=O)Nc2cc(C(F)(F)F)ccc2N2CCOCC2)ccc1O`, the figure is -7.08%; as for `CCCN1CCC(NCc2ccc(Cl)c(Cl)c2)CC1`, 3.44%; as for `C=CCN1C(=O)S/C(=C\c2cn(CC(=O)N3CCOCC3)c3ccccc23)C1=O`, 8.3%.
As for `COc1ccc(OC)c(CNCc2c(C(=O)O)c(C)n(Cc3ccccc3F)c2C)c1`, the figure is 1.41%; as for `COc1ccc(/C=C(\NC(=O)c2ccccc2Cl)C(=O)N2CCOCC2)cc1`, 12.8%; as for `COc1ccc(CCN(C)CC(=O)Nc2c3c(nc4ccccc24)N(Cc2ccccc2)CC3)cc1OC`, -0.13%.
Turning to `COC(=O)c1sc2nc3c(cc2c1N)CCCC3`, the “% Inhibition @ 10 uM” value amounted to 4.38%.
Turning to `COc1ccc(S(=O)(=O)N2CCN(Cc3ccccc3OC)CC2)cc1`, the “% Inhibition @ 10 uM” value stood at 3.86%.
With `CCOc1cc(/C=C(/C#N)c2nc3ccccc3[nH]2)ccc1OCC(=O)O` the figure was 1.35%.
For `CN1C(=O)C(CC(=O)c2ccc(Br)cc2)c2ccccc21` (stereo not drawn), the “% Inhibition @ 10 uM” value is on record as 0.408%.
As for `CC1CN=C(/C=C(O)/C=C/c2ccccc2)C(=O)N1` (stereo not drawn), the figure is -1.4%; as for `Cc1coc2c(C)c3oc(=O)c(CC(=O)N4CCCC4)c(C)c3cc12`, 2.54%; as for `COc1ccc(CNC(=O)c2cccs2)cc1`, 2.46%.
With `COc1ccc(-c2cc(C(=O)NCc3cn(C)nc3C)c3cc(Br)ccc3n2)cc1` the figure was 1.86%; with `O=C1CC(c2cccc3ccccc23)C2=C(CCCC2=O)N1` (stereo not drawn), -2.24%.
On to `C=CCn1c(SCC(N)=O)nc2sc(CC)cc2c1=O`, for which the “% Inhibition @ 10 uM” value is 2.36%.
`COc1ccc(-c2cc(C(F)(F)F)nc(SCC(=O)NC3CCCC3)n2)cc1`: the “% Inhibition @ 10 uM” value came to 4.08%.
With `CC12CN(C(=O)c3ccccc3)CC(C)(CN(C(=O)c3ccccc3)C1)C2O` (stereo not drawn) the figure was -11.1%.
With `NS(=O)(=O)c1ccc(-c2ccc(/C=c3\sc4nc5ccccc5n4c3=O)o2)cc1` the figure was 1.37%; with `CCOc1ccc(C(=O)C2=C(O)C(=O)N(CCCN(C)C)C2c2ccccc2F)cc1C` (stereo not drawn), -3.75%; with `Cc1ccc(SCC(=O)NCc2ccccc2Cl)cc1`, 0.722%.
With `CC(=O)Nc1ccc(NC(=O)/C=C/c2ccc(C(C)C)cc2)cc1` the figure was -1.99%.
Take `CCOC(=O)C1=C(C)N=c2s/c(=C/c3ccccc3F)c(=O)n2C1c1ccccc1Cl` (stereo not drawn): the “% Inhibition @ 10 uM” value is given as -1.54%.
As for `O=C(O)c1ccc(S(=O)(=O)N2CCOCC2)o1`, the figure is -3.53%; as for `O=C(NCCOc1ccccc1Cl)c1ccc2c3c(cccc13)CC2`, -3.04%.
As for `CCN1C(=O)N/C(=C/c2ccc(N(CC)CC)cc2)C1=O`, the figure is 0.59%; as for `C/N=C1\S/C(=C\c2ccc(OCc3cccc(C(=O)O)c3)cc2)C(=O)N1C`, -4.39%.
With `COc1cc2nc3c(O)n(CCCN4CCN(C)CC4)cnc-3c2cc1OC` the figure was -3.52%.
`Cc1cccc2c1cnn2C(=O)CCC(=O)N1CCc2ccccc2C1`: the “% Inhibition @ 10 uM” value was 1.68%.
As for `Cc1onc(-c2ccccc2)c1C(=O)N1CCN(c2ccccc2)CC1`, the figure is -2.99%; as for `COc1ccccc1N(C(C)=O)C1SC(=O)N(c2ccccc2)C1=O` (stereo not drawn), 16.8%; as for `Cc1cccc(NC(=O)c2sc3nc4c(cc3c2N)CCCC4)c1`, -8.18%.
As for `CC(C)(C)c1ccc(C(=O)N2CCOCC2)cc1`, the figure is -1.25%.
In the case of `C(=C\c1ccccc1)/CN1CCN(Cc2cccc3ccccc23)CC1`, the “% Inhibition @ 10 uM” value was determined as 2.47%.
Regarding `Cc1cccc(C2C3=C(O)c4ccccc4C3=Nc3c2c(=O)n(C)c(=O)n3C)c1` (stereo not drawn), the “% Inhibition @ 10 uM” value came out at 8.6%.
As for `COc1ccc2nc3sc(C(=O)NCCN(C)Cc4ccccc4)cc3cc2c1`, the figure is -2.12%; as for `CC(C)C[C@H](NC(=O)[C@H](Cc1c[nH]c2ccccc12)NC(=O)OC(C)(C)C)C(=O)NCC#N`, -3.48%; as for `CO/C(O)=C1\C(C)=NC2=C(C(=O)CC(C)(C)C2)C1c1cc(Br)cc(Br)c1O` (stereo not drawn), 21.5%.
For the compound `O=C(CN1C(=O)c2ccccc2S1(=O)=O)NCCSCc1ccc(Cl)cc1Cl`, the “% Inhibition @ 10 uM” value was -6.51% and -6.67%.
With `Cc1cccc(C(=O)N2CCN(c3ccc(N4CCOCC4)nn3)CC2)c1` the figure was 0.66%.
With `OC1(c2ccc(Br)cc2)CCN(Cc2ccc(Cl)c(Cl)c2)CC1` the figure was 1.88%.
As for `CC1CCN(S(=O)(=O)c2ccc(Cl)c(C(=O)O)c2)CC1`, the figure is -3.44%; as for `Cc1cc(Cl)ccc1OCCNC(=O)c1cccnc1`, -0.834%.
For the compound `Cc1ccc2oc(=O)c3cnn(CC(=O)N(C)CCC#N)c3c2c1`, the “% Inhibition @ 10 uM” value came to 1.62%.
As for `Cc1cc(C)c(C#N)c(SCc2ccc(Cl)cc2)n1`, the figure is 4.41%; as for `Cc1ccc2nc3c(O)n(CC(=O)NCCC4=CCCCC4)ncc-3c2c1`, -3.45%; as for `CCCCC1(C)OC(=O)C(=Cc2c[nH]c3ccccc23)C(=O)O1` (stereo not drawn), 3.16%.
As for `Cc1cc(C(=O)NCc2ccc3c(c2)OCO3)n(-c2ccccc2)n1`, the figure is -0.971%; as for `N#C/C(=C\c1ccccc1Cl)c1nc2ccccc2[nH]1`, 4.54%; as for `Cc1c(Br)c(C(=O)Nc2cccc(CN3CCOCC3)c2)nn1C`, 0.389%.
As for `CC(C)CNC(=O)c1cccnc1Nc1ccccc1`, the figure is 0.634%; as for `CCC(C)N1CCN(C(=O)Cc2ccccc2)CC1` (stereo not drawn), 9.48%; as for `Cc1ccc(C(=O)CC(C(=O)O)c2c[nH]c3ccccc23)cc1` (stereo not drawn), -5.2%.
For `COc1ccc(-c2csc(N3CCN(C(=O)c4ccco4)CC3)n2)cc1`, the “% Inhibition @ 10 uM” value stood at 1.03%.
With `O=C(Nc1cnn(Cc2ccc(F)cc2)c1)c1c(Cl)cccc1Cl` the figure was -1.88%; with `COc1cc(Br)c(C2CC(=O)NC(C)=C2C(=O)OCC2CCCCC2)cc1OC` (stereo not drawn), -1%.
As for `CCCOC(=O)c1ccc(Oc2c(C(F)(F)F)oc3cc(O)ccc3c2=O)cc1`, the figure is -2.91%; as for `Cc1ccc(N(CC(=O)N[C@@H]2C[C@H]3CC[C@@H]2C3)S(=O)(=O)c2ccc(F)cc2)cc1`, 0.992%.
As for `COCCNC(=O)CS(=O)Cc1nc(-c2ccc(OC)cc2)oc1C` (stereo not drawn), the “% Inhibition @ 10 uM” value is on record as -1.05%.
Turning to `Cc1onc(-c2ccccc2)c1C(=O)NC(CC(=O)O)c1cccc(Cl)c1` (stereo not drawn), the “% Inhibition @ 10 uM” value is on record as -4.49%.
As for `COC(=O)c1cc(OC)c(OC)cc1NC(=O)C1CC1`, the figure is -5.46%; as for `COc1ccc(C(=O)n2nc3c4c(cccc42)C(=O)c2ccccc2-3)cc1`, -2.75%; as for `CCOc1ccccc1CNC(=O)CCC(=O)N1Cc2ccccc2Oc2ncccc21`, -1.34%.
As for `O=C(CCn1c(=O)c2cccn2c2cccnc21)N1CCC2(CC1)OCCO2`, the figure is 3.88%; as for `CC(C)CNC(=O)c1ccc(COc2cc(Cl)ccc2Cl)o1`, 0.413%.
As for `CCOC(=O)c1c(C)n(CC(O)CN2CCOCC2)c2cc(Br)c(OC)cc12` (stereo not drawn), the figure is 2.99%; as for `O=C(c1ccco1)N1CCN(c2ccc([N+](=O)[O-])cc2)CC1`, -1.93%.
Take `C=CCNC(=S)NC1(C)CCS(=O)(=O)C1` (stereo not drawn): the “% Inhibition @ 10 uM” value was -4.51%.
As for `COc1ccc(-n2c(C)cc(/C=C3\C(=N)N4N=C(N5CCCC5)SC4=NC3=O)c2C)cc1Cl`, the figure is 0.0579%; as for `CCOc1cc(Br)c(C=C2C(=O)NC(=O)NC2=O)cc1OC`, -2.39%; as for `Cc1ccc(C2OCC3(CO2)SC(=O)NC3=O)cc1` (stereo not drawn), 2.08%.
As for `O=C(O)c1cccnc1C(=O)c1ccccc1`, the figure is -5.81%.
On to `CCOc1ccc(S(=O)(=O)N2CCN(C)CC2)c2ccccc12`, for which the “% Inhibition @ 10 uM” value was -1.95%.
As for `COc1ccc(C(=O)Nc2ccccc2F)cc1`, the figure is 6.6%.
`CCCSc1nnc(NC(=O)c2cccc3ccccc23)s1`: the “% Inhibition @ 10 uM” value was -0.142%.
With `Cc1cc(C(F)(F)F)c2c(N)c(C(=O)Nc3cccc(C(F)(F)F)c3)sc2n1` the figure was -4.39%; with `FC(F)(F)c1ccc(N2CCOCC2)c(NCc2cccs2)c1`, 3.66%; with `COc1ccc(OCC(O)Cn2c(Br)nc3c2c(=O)[nH]c(=O)n3C)cc1` (stereo not drawn), -1.37%.
With `COc1ccc(N(CC(=O)Nc2ccc(Br)cc2)S(C)(=O)=O)cc1Cl` the figure was -2.32%.
